Assay results reported in PubChem BioAssay AID1508642 (National Center for Advancing Translational Sciences (NCATS), 2021).
Out of some 43,000 compounds screened, about 200 (0.47%) were called active. Not shown: some 12% with an inconclusive outcome. Calls come from the whole dose curve; as a rule, active = well fitted cell-killing curve with a large enough effect; inconclusive = small, poorly fitted or top-dose-only effect, or effect the other way; inactive = flat fitted curve, though single readings scatter. This is one part of the list.

assay: Cell viability qHTS assay in S16 Pmp22-F2sN cells; settings: S16 Pmp22-F2sN Schwann cells viability, CellTiter-Glo, 24 h; series mostly up to 57.5 µM; activity change, negative = cytotoxicity: at the top concentration; note: nearly all actives have a fitted effect of over 65% in size
In short: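 Used to flag compounds lowering reporter output through toxicity, this quantitative HTS measures ATP-based CellTiter-Glo luminescence in S16 Pmp22-F2sN Schwann cells after 24 h compound exposure at 37C.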
% is set by controls: 0 for no effect and ±100 for the full control effect.

| Compound | activity change, negative = cytotoxicity |
| --- | --- |
| CCC1CN(CC(=O)NCc2cccc(Br)c2)c2ccccc2S1 (centres undefined) | inactive: -20.5% |
| Cc1ccccc1OCc1nnc(SCc2cc(=O)c3cc(F)ccc3[nH]2)n1C | inactive: -27.2% |
| N#C/C(=C\c1cccc(F)c1)c1nc(-c2cc3ccccc3oc2=O)cs1 | inactive: 19.9% |
| Cc1ccc2c(c1)c1c(c(=O)n(Cc3ccccc3)c(=O)n1Cc1cccc(F)c1)n2C | inactive: 5.79% |
| CCOC(=O)CN(Cc1ccccc1)C(C(=O)NC1CCCCC1)c1ccccc1 (centres undefined) | inactive: -12.5% |
| CCOc1ccc(-c2cc(C)n3nc(C(=O)Nc4ccc(C)c(C)c4)cc3n2)cc1 | inactive: 7.39% |
| CCc1nnc(SCC(=O)Nc2ccc(OC)c(OC)c2)c2cc3occc3n12 | inactive: 12.4% |
| CCc1ccc(N2CC(C)Cn3c2nc2c3c(=O)n(CC(=O)O)c(=O)n2C)cc1 (centres undefined) | inactive: 9.9% |
| COC(=O)Cc1c(C)nc2nc(NCc3ccc(Br)cc3)[nH]n2c1=O | inactive: -2.03% |
| CCOc1ccc(-n2cc(-c3ccccc3)c3c(NCc4ccccc4)ncnc32)cc1 | inactive: -11.4% |
| COC(=O)Cc1c(C)c2ccc3c(c2oc1=O)CN(Cc1ccc(Cl)cc1)CO3 | inactive: -1.39% |
| COc1cccc(NC(=O)C2CC(=O)N(c3ccc(Br)cc3)C2)c1 (centres undefined) | inactive: 6.81% |
| COc1ccc(NC(=O)CCn2cnnn2)cc1 | inactive: 9.06% |
| COc1ccc(CNC(=O)C2CCN(S(=O)(=O)N3CCC(C)CC3)CC2)c(OC)c1 | inactive: 5.55% |
| Cc1ccc(NS(=O)(=O)c2cn(C)c(C)n2)c(Br)c1 | inactive: 3.48% |
| COc1cc(CN(C(=O)c2ccc(C)cc2)C2CCS(=O)(=O)C2)cc(OC)c1OC (centres undefined) | inactive: -7.11% |
| CCN(CC)c1ccc(NC(=O)Cn2cc3c(n2)CCCC3)c(C)c1 | inactive: -20.4% |
| Cn1c(=O)n(C)c2cc(N3CCCCC3)c(NC(=O)Nc3ccc(Br)cc3)cc21 | inactive: -4.21% |
| CCc1ccc(NC(=O)CSc2nc3c([nH]c4ccccc43)c(=O)n2C)cc1 | inactive: 16.7% |
| Cc1c(NC(=O)C(C)(C)C)cccc1-c1nc2ccccc2s1 | inactive: -3.36% |
| CCOc1ccccc1NC(=O)Cn1c(=O)n(-c2ccc(Cl)cc2)c(=O)c2oc3ccccc3c21 | inactive: -5.85% |
| Cn1cc(S(=O)(=O)N2CCc3ccccc32)cc1C(=O)Nc1ccc(C(F)(F)F)cc1 | inactive: -7.87% |
| COc1ccc(N2CCN(C(CNC(=O)c3c(F)cccc3F)c3ccc4c(c3)OCO4)CC2)cc1 (centres undefined) | inactive: 0.0536% |
| CCOC(=O)c1cc2c(=O)n3ccccc3nc2n(CC2CCCO2)c1=NC(=O)c1ccccc1OCC (centres undefined) | inactive: 5.7% |

| Compound | activity change, negative = cytotoxicity |
| --- | --- |
| Cc1ccc(-n2c(=O)c3ccc(C(=O)NCc4ccccc4Cl)cc3n(Cc3cccc(F)c3)c2=O)cc1 | inactive: 0.583% |
| Cc1ccc(CNC(=O)C2CCCN(c3nn4cc(-c5ccc(C)cc5)nc4s3)C2)cc1 (centres undefined) | inactive: 5.56% |
| CCOc1ccccc1NC(=O)CSc1nnc(CC)c(CC)n1 | inactive: -5.81% |
| CCCCC(CC)CNC(=O)c1ccc(Cn2c(=O)[nH]c3cc(OC)c(OC)cc3c2=O)cc1 (centres undefined) | inactive: -14.2% |
| CCN1c2ccccc2-c2nc(SCC(=O)Nc3cc(OC)cc(OC)c3)ncc2S1(=O)=O | inactive: 2.59% |
| CCCN(C(=O)c1c(C)oc2ncn(CC(C)C)c(=O)c12)c1ccccc1C | inactive: 9.91% |
| CC(C)n1c(SCC(=O)c2ccc(F)cc2)nc2c(sc3ccccc32)c1=O | inactive: 5.97% |
| COc1ccc(CCNC(=O)c2c(Nc3ccccc3C)sc(C(=O)c3ccccc3)c2N)cc1OC | inactive: -3.27% |
| Cc1cccc2nc(Cn3c(=O)n(-c4ccccc4)c(=O)c4c5c(sc43)CCC5)cc(=O)n12 | inactive: -0.733% |
| Cc1ccc(O)c(NC(=O)C2=CC(c3cccs3)=NS(=O)(=O)N2C)c1 | inactive: 5.54% |
| Cc1ccccc1OCC(=O)Nc1nnc(SCc2cc(=O)n3cccc(C)c3n2)s1 | inactive: -2.41% |
| COc1cccc(CNC(=O)c2cc3cc(C)ccc3n2C)c1 | inactive: -1.65% |
| COc1cccc(CN2CCCN(Cc3ccc(F)cc3)S2(=O)=O)c1 | inactive: 1.02% |
| COc1ccc(-n2c(=O)c3ccccc3n(Cc3ccc(F)cc3Cl)c2=O)cc1OC | inactive: 1.31% |
| Clc1cccc(-c2nnc(CN3CCN(c4ccccn4)CC3)o2)c1 | inactive: 1.83% |
| Cc1cc(S(=O)(=O)Nc2cc3c(cc2N2CCOCC2)n(C)c(=O)n3C)ccc1F | inactive: -4.81% |
| CCc1nc2ccc(C(=O)NCCc3ccc(SC)cc3)cc2nc1CC | inactive: -1.47% |
| COc1ccc(NC(=O)C(CC(C)C)NC(=O)C2CCCCC2)c(OC)c1 (centres undefined) | inactive: -1.91% |
| CC(=O)Nc1nonc1-c1nnc(SCC(=O)Nc2ccccc2Cl)n1C | inactive: 0.992% |
| CCOc1ccc(CNC(=O)C2CCN(C3=NS(=O)(=O)C(c4ccc(C)cc4)=C3CC)CC2)cc1 | inactive: -17.7% |
| COc1ccc(NC(=O)C2CCN(C(=O)c3sc4nc[nH]c(=O)c4c3C)CC2)c(OC)c1 | inactive: 3.47% |
| CCc1ccccc1N1CC(c2nnc(NC(=O)c3ccco3)s2)CC1=O (centres undefined) | inactive: -2.53% |
| CCN(CC)S(=O)(=O)c1ccc2c(c1)N(CC(=O)N1CCN(c3cc(Cl)ccc3C)CC1)C(=O)CO2 | inactive: -7.57% |
| CC(=O)OCc1cnc(C)c2oc(=O)c(C(=O)Nc3ccc(F)cc3C)cc12 | inactive: -0.102% |

| Compound | activity change, negative = cytotoxicity |
| --- | --- |
| Cc1cccc(N2CCN(c3nc4ccccc4c4nc(-c5ccccc5)nn34)CC2)c1C | inactive: -3.46% |
| Cc1cccc(C)c1OCC(=O)Nc1nonc1-c1ccc(Br)cc1 | inactive: -1.91% |
| Cc1ccc(C(=O)Nc2ccc(-n3c(C)nc4ccccc4c3=O)cc2)cc1[N+](=O)[O-] | inactive: -13.8% |
| COc1ccc(OC)c(NC(=O)Cn2c(=O)oc3cc(S(=O)(=O)NCc4ccccc4)ccc32)c1 | inactive: -2.64% |
| O=C(NCC12CC3CC(CC(C3)C1)C2)c1cc2nc(-c3ccc(Cl)cc3)cc(C(F)(F)F)n2n1 | inactive: 3.89% |
| CCN(C(=O)CCS(=O)(=O)c1cccc2nsnc12)c1cccc(C)c1 | inactive: 8.85% |
| O=C(Nc1nc2n(n1)C(c1ccc(F)cc1)C=C(c1ccc(Cl)cc1)N2)c1ccco1 (centres undefined) | inactive: -0.403% |
| CCOc1ccc2oc(=O)cc(CN3CCN(c4ccc(OC)cc4)CC3)c2c1 | inactive: 2.5% |
| CCN(C(=O)c1cc2c(s1)-c1c(C)cccc1OC2)c1cc(C)ccc1C | inactive: -0.556% |
| Cc1cccc(NC(=O)CSc2nc3c(c(=O)[nH]2)CN(Cc2ccc4c(c2)OCO4)CC3)c1C | inactive: 5.52% |
| CC(=O)c1cc(-c2ccccc2)n(CC(=O)NC2CCCCCC2)c1C | inactive: -2.49% |
| O=C(Cn1c(=O)n(Cc2cccs2)c(=O)c2cccnc21)Nc1ccccc1F | inactive: 16.3% |
| Cc1cc(O)c(C(c2cccc(F)c2)N2CCC(C)CC2)c(=O)n1Cc1ccco1 (centres undefined) | inactive: 12.3% |
| O=C(NCCc1ccc(Cl)cc1)c1cccn1-c1nnc(N2CCCCC2)s1 | inactive: -1.6% |
| CCc1nc(-c2cc(S(=O)(=O)N3CCN(c4ccc(F)cc4)CC3)ccc2OC)no1 | inactive: 3.72% |
| CN(C1CCCCC1)S(=O)(=O)c1ccc(C(=O)Nc2sc3c(c2C(N)=O)CC(C)(C)NC3(C)C)cc1 | inactive: -14.6% |
| O=C(NCc1cccc(F)c1)c1ccc(CS(=O)c2ccccc2Cl)o1 (centres undefined) | inactive: -6.94% |
| CCOC(=O)N1CCc2c(sc3c2c(=O)n(Cc2ccccc2)c(=O)n3CC(=O)Nc2c(C)cccc2C)C1 | inactive: 4.18% |
| Cn1c(=O)c(=O)n(C)c2cc(S(=O)(=O)N3CCN(c4ccccc4F)CC3)ccc21 | inactive: -13.8% |
| CCc1ccc(-n2c(=O)c3cccnc3n2CC(=O)NCc2ccc(F)cc2)cc1 | inactive: 6.28% |
| COc1cccc(-c2cc(C(F)(F)F)nc(-n3nc(C)c(Br)c3C)n2)c1 | inactive: 7.43% |
| Nc1nc(N)c(S(=O)(=O)c2ccccc2)c(Nc2ccc(Br)cc2)n1 | inactive: 2.54% |
| COc1ccc(C(=O)NCC(c2cccnc2)N2CCN(c3ccc(F)cc3)CC2)cc1 (centres undefined) | inactive: -1.64% |
| O=C(NCC(c1ccc(Cl)cc1)N1CCCCC1)c1ccc(F)cc1 (centres undefined) | inactive: 4.11% |

| Compound | activity change, negative = cytotoxicity |
| --- | --- |
| Cc1cccc(NC(=O)C(=O)c2cc(C)n(-c3ccccc3)c2C)c1C | inactive: -0.21% |
| CCOc1cccc2cc(-c3nc4sc(C(=O)Nc5ccc(C)cc5)c(C)c4c(=O)[nH]3)c(=O)oc12 | inactive: 6.73% |
| COc1ccccc1CNC(=O)c1cccn1-c1nnc(N2CCCC2)s1 | inactive: 1.27% |
| Cc1cccc(NC(=O)Cn2nc(-c3ccc(Cl)cc3)c3ccccc3c2=O)c1 | inactive: 3.01% |
| O=C(CSc1ccc2nc(-c3ccccc3)cn2n1)Nc1ccccc1C(F)(F)F | inactive: 0.843% |
| N#Cc1ccc(C(=O)Nc2ccc(Cl)c(-c3nc4cc(Cl)ccc4o3)c2)c(F)c1 | inactive: -22.8% |
| COc1ccc(OC)c(NC(=O)CSC2=Nc3ccccc3C3=NC(CC(=O)NCc4ccco4)C(=O)N23)c1 (centres undefined) | inactive: 0.651% |
| COc1ccc(NC(=O)c2sc3nc(C)c(C(=O)Nc4ccc(C)cc4C)c(-c4ccc(Cl)cc4)c3c2N)cc1 | inactive: -23.5% |
| O=C(NCc1ccc2c(c1)CCN2C(=O)c1ccncc1)c1cccc(Cl)c1 | inactive: 4.47% |
| COc1ccc(N2CCN(C(=O)Cn3ncc4c3-c3cc(C)ccc3OC4)CC2)cc1 | inactive: 3.25% |
| COc1ccc(-c2nc3sc(CCNC(=O)C(=O)Nc4cc(C)cc(C)c4)c(C)n3n2)cc1 | inactive: 0.107% |
| CCN(C(=O)c1nn(-c2ccc(OC)c(Cl)c2)c(=O)c2c1c1ccccc1n2C)c1cc(OC)ccc1OC | inactive: 1.33% |
| Cc1ccc(C(=O)NCC(c2cccs2)S(=O)(=O)c2cccs2)cc1C (centres undefined) | inactive: 0.16% |
| CCOc1ccc(NC(=O)CN(C)S(=O)(=O)c2ccc3c(c2)c(=O)n(C)c(=O)n3C)cc1 | inactive: -11.7% |
| COc1cc(OC)cc(C(=O)Nc2cc(-c3nc4ccccc4s3)ccc2OC)c1 | inactive: -0.594% |
| CCC(=O)Nc1sc2c(c1C(=O)Nc1ccc(OC)cc1)CCC(C(C)(C)C)C2 (centres undefined) | inactive: -14.6% |
| CCOc1ccc(-c2cn(-c3ccc(OC)cc3)c(SCC(=O)Nc3ccccc3Cl)n2)cc1 | inactive: -2.98% |
| COc1ccc(F)cc1S(=O)(=O)NCCc1csc(-c2ccc(Cl)cc2)n1 | inactive: -3.71% |
| CCc1ccc(NC(=O)C2CCN(c3nnc(-n4c(C)ccc4C)s3)CC2)cc1 | inactive: 0.0111% |
| Cc1ccc(C)c(-n2nnc(-c3nc(-c4ccc(Cl)cc4)no3)c2N)c1 | inactive: 7.58% |
| CCCC(=O)NCCc1nc2ccccc2n1Cc1c(F)cccc1Cl | inactive: -7.56% |
| O=C(Nc1ccc(S(=O)(=O)N2CCC(c3nc4ccccc4s3)CC2)cc1)c1ccc(F)cc1 | inactive: 14.3% |
